Data as given in PubChem BioAssay AID1794842 (National Center for Advancing Translational Sciences (NCATS), 2023).
Screen size: about 2,800 compounds; fewer than 10 were called active. Calls come from the whole dose curve; as a rule, active = well fitted curve in the direction sought with a large enough effect; inconclusive = small, poorly fitted or top-dose-only effect, or another doubt; inactive = no such curve, though single readings can be large or run the other way. The list shows a part of the results.

Target: Metallo-beta-lactamase type 2 (Klebsiella pneumoniae) (UniProt C7C422)
Chain of UniProt C7C422 (C7C422 whole entry, looked up): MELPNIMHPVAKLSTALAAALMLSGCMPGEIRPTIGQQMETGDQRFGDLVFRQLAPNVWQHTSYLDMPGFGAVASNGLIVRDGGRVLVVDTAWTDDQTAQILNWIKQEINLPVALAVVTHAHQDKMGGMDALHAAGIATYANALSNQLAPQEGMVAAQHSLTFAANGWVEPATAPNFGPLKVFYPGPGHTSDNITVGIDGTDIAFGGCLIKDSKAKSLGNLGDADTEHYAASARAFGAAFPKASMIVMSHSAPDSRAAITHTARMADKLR
Assay: qHTS to identify inhibitors of the New Delhi Metallo-beta-lactamase (NDM): Meropenem screen against the machine-based learning selections. Note: % of control where 0% means no effect.
Settings: Purified NDM-1, meropenem hydrolysis, absorbance 300 nm; at 38.4 µM (top of the series) unless noted
Summary of the method: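 Hydrolysis by 2 nM NDM-1 was followed by absorbance after >30 min compound preincubation in HEPES pH 7.0 buffer with 1 uM Zn2SO4. For nitrocefin (16.7 uM, 15 min, 485 nm) and meropenem (50 uM, 30 min, 300 nm), each substrate ran on separate plates.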

Activity change, negative = inhibition, inactive:
Cc1oc(C(O)c2cccc(O)c2)nc1C(=O)NCc1ccccc1 (stereo unspecified) -1.22% [at 57.5 µM]
c1ccc(CCN2CCNc3cc(-c4cn[nH]c4)ncc3C2)cc1 -2.17% [at 57.5 µM]
OCC1CCCCN1CCNc1nccc(-c2cccnc2)n1 (stereo unspecified) -0.494%
OC(c1nc(Nc2ccc(Cl)cc2)n[nH]1)C1CC1 (stereo unspecified) 1.56% [at 76.7 µM]
O=C(N[C@H]1CO[C@H]2[C@@H]1OC[C@@H]2Nc1nccc(-c2cccc(F)c2)n1)c1ccccc1 1.66% [at 57.5 µM]
Cc1oc(C(O)c2cccc(O)c2)nc1C(=O)Nc1ccccc1 (stereo unspecified) -0.207% [at 57.5 µM]
COc1ccc(-c2noc(C(=O)O)c2[C@@H](C)NC(=O)c2ccccc2)cc1 43.1% [at 57.5 µM]
Cc1ccc(C(=O)N2CCN(c3nnc4cccc(C)n34)CC2)cc1F -3.29%
Cc1cccc(OCC2(CNC(=O)c3cnccn3)C[C@@H](O)[C@@H](O)C2)n1 (stereo partly specified) 30.9% [at 57.5 µM]
Cc1ccccc1CN1C[C@H](O)C[C@H]1c1nc(-c2cccnc2)no1 1.53% [at 57.5 µM]
O=C(c1ccccc1F)N1CCCC2(C1)C(=NC1CCCC1)NC(=O)N2c1cc(F)cc(F)c1 (stereo unspecified) 0.622%
O=c1cc2c(nn1Cc1cccc(Br)c1)CCCCC2 -2.44%
CC(C)N1C(=O)[C@@H]2[C@@H](CCN2C(=O)CCCC(=O)O)N(Cc2cccc(F)c2)C1=O -0.0117% [at 57.5 µM]
Oc1ccc(-c2cc3c(cn2)CN(Cc2ccccc2)CCN3)cc1F 7.15% [at 57.5 µM]
CC1=C[C@@H](CO)[C@H](C(C)C)C[C@H]1CC(=O)NCc1ccc(F)cc1 -0.0017% [at 57.5 µM]
COCCN1C[C@H]2CN(C(=O)C3CC3)CCN2C1=O -0.0977% [at 76.7 µM]
CC(=O)N1CCN([C@H]2[C@@H]3OC[C@@H](O3)[C@@H](NC(=O)Nc3cccc(C(F)(F)F)c3)[C@@H]2O)CC1 0.574%
CNc1ccc(-c2noc([C@@H]3CCCN3Cc3cccnc3)n2)cn1 9.9% [at 57.5 µM]
CCCCC(=O)Nc1ccc(C)cc1NC(=O)COc1cccnc1 -1.33%
CS(=O)(=O)NC[C@H]1O[C@@H](CC(=O)N2CCN(c3ccccn3)CC2)[C@H](O)[C@@H]1O 0.305% [at 57.5 µM]
COc1ccccc1CN1CCC2(CC1)CC(C(=O)O)N(C(C)=O)C2 (stereo unspecified) 2.43%
COCCn1c(C)cnc1CCNC(=O)c1cc(C)nn1C 46.6%
CC(=O)N1CCC(N[C@H]2C[C@@H](Cc3cc(CN(C)C)on3)C2(C)C)CC1 0.329% [at 57.5 µM]
Cc1cccc(-c2noc([C@@H]3Cc4nc[nH]c4CN3C(=O)COCC(=O)O)n2)c1 48.8% [at 57.5 µM]
CC1=C[C@@H](CNCc2ccncc2)[C@H](C(C)C)C[C@H]1Cc1nnc(-c2ccc(C)cc2)o1 0.0973% [at 57.5 µM]
COc1ccc(NC(=O)N[C@H]2CO[C@H]3[C@@H]2OC[C@@H]3n2cc(CN(C)Cc3ccccc3)nn2)cc1 -1.08%
Cc1ccc2c(c1)N1C(=O)OC[C@@H]1CCN(C(=O)NC1CCCCC1)C2 1.66% [at 57.5 µM]
CC(Cn1cncn1)NC(=O)c1ccc(S(=O)(=O)NCCO)cc1 (stereo unspecified) -0.61%
CC(=O)N1CCC(N[C@H]2CC(C)(C)[C@@H]3C[C@@](C)(O)CC[C@]23CCC(=O)NCCN2CCOCC2)CC1 -0.0233%
CC(C)N1C[C@H](O)C[C@H]1c1nc(-c2ccc(C(F)(F)F)cc2)no1 4.8% [at 57.5 µM]
COCC(=O)Nc1ccc([C@H]2OCC(=O)N(CC(C)C)[C@@H]2CO)cc1 0.753% [at 57.5 µM]
Cc1ccn2c(C(=O)N3CCCC(c4[nH]ncc4-c4ccccc4)C3)nnc2n1 (stereo unspecified) 3.57%
OC(c1cccc(C(F)(F)F)c1)c1nc(Nc2ccc(F)cc2F)n[nH]1 (stereo unspecified) -1.49% [at 57.5 µM]
COc1ccc(-n2nc(C)c([C@@H]3C=C[C@@H](NS(=O)(=O)c4cccs4)C3)c2C)cc1 1.5% [at 57.5 µM]
COc1cccc(-c2ccc(CN3CC4CCC(C3)N4c3ccc(C(F)(F)F)cc3)cc2)c1 1.66%
c1ccc(CN2CCNc3cnc(Nc4ccc(N5CCOCC5)cc4)cc3C2)cc1 13% [at 57.5 µM]
O=C1CC(C(=O)O)C2(CCN(c3cc(C(=O)O)c4ccccc4n3)CC2)N1 (stereo unspecified) 8.2%
COc1ccc(NC(=O)NCC2CCCN(C(C)C)C2)cc1OC (stereo unspecified) -0.512%
NC1(Cc2cc(CN3CCN(c4ccccc4)CC3)on2)COC1 0.883% [at 57.5 µM]
COC(=O)[C@@H]1Cc2ncn(C(C)C)c2CN1S(=O)(=O)c1ccc(F)cc1 12.5% [at 57.5 µM]
Cc1nc2c(C(=O)N3CCC(c4cc(CC(=O)O)[nH]n4)CC3)cccc2[nH]1 67.5%
Clc1ccccc1-c1cc(C2CCN(Cc3cc4n(n3)CCNC4)CC2)[nH]n1 45.2%
O=C(O)c1ccc(CC2CCN(Cc3ccncc3)C2)cc1 (stereo unspecified) -0.495%
CCCn1cc(S(=O)(=O)N2C[C@H](C3CC3)[C@@H](N)C2)cn1 0.478%
O=C(CC[C@@H]1CNC(=O)[C@@H]2C[C@H](NC(=O)Nc3ccsc3)CN12)NCc1cccs1 1.27%
CCOc1ccc(NC(=O)Cn2c(N3CCc4ccccc4C3)nc(C)cc2=O)cc1 3.94%
OCC1CN(Cc2cccnc2)CCC12CCN(Cc1cccc(O)c1)CC2 (stereo unspecified) 3.66%
Cc1cc(C(=O)NCCc2csc(-c3cccnc3)n2)cc(S(N)(=O)=O)c1C 2.03%
COc1ccc(C(=O)N[C@@H]2CCC[C@@H]2C(=O)N2CCN(C(=O)c3ccco3)CC2)cn1 -0.601%
CCCN(C)c1nccnc1OC1CCN(C(=O)c2ccc(OC)nc2OC)C1 (stereo unspecified) 14.2%
COCCOc1cc(-c2noc([C@@H]3CCCN3Cc3ccc(C(=O)O)cc3)n2)ccn1 43.6% [at 57.5 µM]
O=C(NCc1ccccc1F)C1CCN(C(=O)c2ncn3c2COC(c2ccccc2)C3)CC1 (stereo unspecified) -0.0731%
CC(=O)N1CCN(C(=O)C[C@@H]2CCNC[C@@H]2Cc2cc(-c3ccccc3)on2)CC1 0.0659% [at 57.5 µM]
O=C(O)C[C@@H]1CCN(C(=O)C2CCCCC2)C[C@@H]1CCN1CCOCC1 12.8% [at 57.5 µM]
Cc1cc(CNC(=O)[C@@H]2CCC[C@@H](NCc3nccs3)CN(C)C(=O)C2)no1 0.105% [at 57.5 µM]
O=C(Cc1ccccc1O)NCc1cccnc1Oc1ccc(F)cc1F 0.857%
CN1CCN(S(=O)(=O)c2cccc(C(=O)N3C[C@@H]4CCN[C@@H]4C3)c2)CC1 11.5%
COc1ccc(CCC(=O)N2CCC(N3CC4CC(C3)[C@H]3CCCC(=O)N3C4)CC2)cc1 (stereo partly specified) -0.571%
CC1=C[C@@H](CNCc2ccncc2)[C@H](C(C)C)C[C@H]1Cc1nnc(-c2ccc([N+](=O)[O-])cc2)o1 -3.24%
COc1ccc(CN2CCNc3cc(-c4ccccc4)ncc3C2)cc1O -3.28% [at 57.5 µM]
CCc1noc([C@@H]2CC(F)(F)CN2C(=O)c2ccoc2C)n1 16.8%
O=C(NCc1nc(-c2cnccn2)n[nH]1)[C@H]1CNC[C@H](C(=O)N2CCOCC2)C1 28.1%
Nc1ccsc1C(=O)N[C@H](Cc1ccncc1)C1CC(O)C1 (stereo partly specified) 49.4%
COc1ccccc1CNC(=O)c1c(OCC(C)C)cc(=O)n2c1CCCCC2 2.69%
Cc1ccc(C2Cn3nnc(-c4noc(-c5ccncc5)n4)c3CO2)cc1 (stereo unspecified) -0.101%
CCN1c2cc(C(=O)Nc3ccc(C)c(C)c3)ccc2C(=O)N2CCCCC21 (stereo unspecified) 1.15%
O=C(N[C@H](c1ccccn1)C1CC(O)C1)c1ccc2c(c1)ncn2CCO (stereo partly specified) 0.183%
O=C(c1ccoc1)N1CCCC(CCc2ccc(F)c(F)c2)C1 (stereo unspecified) -0.603%
CC[C@H]1CN(C(=O)NC2CCCCC2)CC[C@H]1CC(=O)Nc1nccs1 29.4% [at 57.5 µM]
Cn1cc(CN2CCOC[C@H]2c2nc(C(C)(C)C)co2)c2ccccc21 3.07% [at 57.5 µM]
COCCC1(NS(C)(=O)=O)CCN(C(=O)c2cccc(C#N)c2)CC1 0.131%
Cc1cc(C)n2ncc(CN3CCCC3c3nc(-c4ccncc4)no3)c2n1 (stereo unspecified) -0.923%
Cc1nn(-c2ccccc2)nc1C(=O)N[C@H](C)c1onc(-c2cccnc2)c1C(=O)O 10.3%
O=C(O)C[C@@H]1CCN(C(=O)C2CCCC2)C[C@@H]1CCN1CCN(c2ccccn2)CC1 42.8% [at 57.5 µM]
O=C1NC[C@@H](CCC(=O)N2CCCC2)N2C[C@@H](NCc3cccc(Cl)c3)C[C@@H]12 -0.342% [at 57.5 µM]
Cc1cc(C(=O)N[C@@H]2C[C@H](Cn3cc(C4CC4)nn3)[C@@H](O)[C@H]2O)no1 30.9% [at 57.5 µM]
